# Results reported in PubChem BioAssay AID1468 (National Center for Advancing Translational Sciences (NCATS), 2008).
# Hit rate of the full screen: of about 280,000 compounds, about 1,100 (0.39%) were called active. The inconclusive results got no clear call from the source; some entries with a clear call stand among them for comparison. Calls follow the shape of the dose curve; as a rule, active = well fitted inhibition curve with a large enough effect; inconclusive = small, poorly fitted or top-dose-only effect, or effect the other way; inactive = flat fitted curve, though single readings scatter. Potencies of inconclusive entries are left out as doubtful fits.
# Molecular target: Microtubule-associated protein tau (Homo sapiens) (UniProt P10636)
# Chain of UniProt P10636 (P10636 whole entry, looked up): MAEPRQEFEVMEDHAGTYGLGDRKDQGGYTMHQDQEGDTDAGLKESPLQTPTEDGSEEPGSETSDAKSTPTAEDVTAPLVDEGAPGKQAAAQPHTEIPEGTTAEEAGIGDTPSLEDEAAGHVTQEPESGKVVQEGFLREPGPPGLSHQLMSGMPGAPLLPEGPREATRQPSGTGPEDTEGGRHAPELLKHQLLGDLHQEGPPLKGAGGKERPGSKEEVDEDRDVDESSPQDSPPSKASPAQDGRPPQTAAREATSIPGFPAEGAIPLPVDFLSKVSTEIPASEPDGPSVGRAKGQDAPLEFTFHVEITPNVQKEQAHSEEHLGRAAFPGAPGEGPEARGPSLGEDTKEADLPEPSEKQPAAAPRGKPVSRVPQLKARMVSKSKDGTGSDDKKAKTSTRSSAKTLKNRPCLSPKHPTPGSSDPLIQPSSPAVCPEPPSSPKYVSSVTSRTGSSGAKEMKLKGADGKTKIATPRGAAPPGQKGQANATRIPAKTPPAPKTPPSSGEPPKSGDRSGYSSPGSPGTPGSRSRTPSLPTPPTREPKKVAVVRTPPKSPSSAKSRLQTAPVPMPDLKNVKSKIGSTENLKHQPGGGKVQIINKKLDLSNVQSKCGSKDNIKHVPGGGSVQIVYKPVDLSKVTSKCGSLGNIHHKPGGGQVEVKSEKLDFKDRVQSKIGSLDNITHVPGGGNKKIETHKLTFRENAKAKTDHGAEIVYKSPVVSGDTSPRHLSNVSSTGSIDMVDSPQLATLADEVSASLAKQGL
# Experiment: qHTS for Inhibitors of Tau Fibril Formation, Fluorescence Polarization; also: nearly all actives have a fitted effect of over 55% in size
# Settings: K18 P301L tau heparin fibrillization, Alexa594 FP, 6 h; series mostly up to 57.7 µM; activity, negative = inhibition: at the top concentration
# In short: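 Human tau K18 […] P301L fragment, 15 uM unlabeled plus 0.24 uM Alexa 594-labeled tau (final), with compound and 20 uM heparin in 100 mM sodium acetate pH 7; 6 hr at 37 C, then Alexa 594 FP read.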
# % is scaled to controls: 0 for no effect and ±100 for the full control effect; potency is read from the fitted curve at half-maximal effect; tags tell the direction and shape of the fitted curve.
SMILES,Potency,"activity, negative = inhibition"
CCc1ccc(NC(=O)CSC2=Nc3ccccc3C3=NC(CCC(=O)NCCc4ccccc4)C(=O)N23)cc1 (configuration not stated),"inconclusive [activator, partial curve, poor fit]",–
CC1=C(C(=O)Nc2ccc(C)cc2C)C(c2ccc(O)cc2)n2nnnc2N1 (configuration not stated),–,inactive: 6.5%
CCOC(=O)Cc1csc(NC(=O)Cn2c(=O)oc3ccccc32)n1,"inconclusive [inhibitor, single point]",–
COc1ccc(C2/C=C\CN(C(=O)C3CCCC3)[C@H](Cc3ccccc3)C(=O)N2Cc2ccc(F)cc2)cc1 (some centres not stated),–,inactive: 7.44%
CCCOc1ccc(C(=O)Nc2cccc(NC(=O)c3cccc(Cl)c3)c2)cc1,"inconclusive [inhibitor, partial curve]",–
Nc1nc(Nc2ccc(Cl)cc2)nc(NCc2ccco2)c1[N+](=O)[O-],active: 15.8 µM,–
CN(C(=O)COc1ccc(Cl)cc1)c1nnc(C23CC4CC(CC(C4)C2)C3)s1,"inconclusive [inhibitor, single point]",–
CC(C)=CCCC1(C)C=Cc2c(ccc3c2[nH]c2cc(O)c(C)cc23)O1 (configuration not stated),"inconclusive [inhibitor, single point]",–
CCCc1cc(-c2[nH]ncc2-c2ccc3c(c2)OCCCO3)c(O)cc1O,"inconclusive [activator, partial curve, poor fit]",–
CCOc1ccc(NC(=O)NCCCn2c(C)nc3cc(C)c(C)cc32)cc1,"inconclusive [activator, single point]",–
CCSc1nc2n(n1)C(c1ccc(CC)cc1)C(C(=O)Nc1ccccc1OC)=C(C)N2 (configuration not stated),"inconclusive [inhibitor, full curve, poor fit]",–
O=[N+]([O-])c1ccccc1-c1cc(-c2cc(Cl)ccc2O)n[nH]1,"inconclusive [inhibitor, single point]",–
O=C(NC(=S)N1CCN(c2nc(-c3ccccc3)cs2)CC1)c1cncc(Br)c1,–,inactive: 11.9%
CCCCCCn1nc(C(=O)Nc2nc3c(s2)CCCC3)c2ccccc2c1=O,"inconclusive [inhibitor, single point]",–
CCN(CC)c1cc(C)nc2nc(-c3ccc(C)cc3)nn12,–,inactive: -2.11%
N/C(=N\S(=O)(=O)c1cc(C(F)(F)F)cc(C(F)(F)F)c1)c1cccs1,"inconclusive [inhibitor, single point]",–
O=C(NCc1ccccc1)C(c1ccc(O)cc1)N(C(=O)Cn1nnc(-c2cccs2)n1)c1ccc2c(c1)OCCO2 (configuration not stated),"inconclusive [inhibitor, single point]",–
Cc1cccc(NC(=O)Cn2c(=O)oc3cc(S(=O)(=O)NCc4ccccc4)ccc32)c1,"inconclusive [inhibitor, partial curve]",–
CC(C)(C)c1nc(NC(=O)Nc2ccccc2)sc1Br,"inconclusive [inhibitor, partial curve]",–
Cc1ccc(C)c(-c2csc(-c3c(N)c(C(=O)c4ccc5c(c4)OCO5)n4ccccc34)n2)c1,–,inactive: 1.7%
COc1ccc(CCNC(=O)Cn2ncc3c(C)n(Cc4ccccc4F)c(C)c3c2=O)cc1OC,–,inactive: -12.9%

SMILES,Potency,"activity, negative = inhibition"
COCCn1nnnc1CN(CCc1ccccc1)Cc1cc2ccc(C)cc2[nH]c1=O,"inconclusive [inhibitor, single point]",–
Cc1ccc2nc(NC(=O)CNS(=O)(=O)c3ccc(Br)s3)sc2c1,"inconclusive [inhibitor, partial curve, poor fit]",–
COc1ccc(CCCc2nnc(SCC(=O)Nc3nccs3)n2C)cc1C,"inconclusive [activator, partial curve]",–
O=C(Nc1ccc(F)cc1)c1oc2ccccc2c1NC(=O)C1CCCC1,"inconclusive [inhibitor, single point]",–
COc1cc(OC)c(NC(=O)CCn2cnc3onc(-c4ccc(F)cc4)c3c2=O)cc1Cl,"inconclusive [inhibitor, single point]",–
COc1ccc(-n2[nH]c(C)cc2=O)cc1,"inconclusive [inhibitor, full curve]",–
COc1ccc(NS(=O)(=O)c2cccc(NC(=O)CCC(=O)c3cccs3)c2)cc1,"inconclusive [inhibitor, single point]",–
Cc1ccc(C)n1-c1sccc1C(=O)O,"inconclusive [inhibitor, single point]",–
O=[N+]([O-])c1ccccc1-c1ccc(C(=S)N2CCCCC2)o1,–,inactive: -12.3%
CC(C)N(Cc1nc(-c2ccccc2)no1)C(=O)COc1ccccc1,"inconclusive [activator, full curve, poor fit]",–
Cc1ccc(/C=N/Nc2cccc3cccnc23)c(O)c1,–,inactive: -7.06%
COC(=O)c1c(NC(=O)c2c(-c3ccccc3Cl)noc2C)sc2c1CCC2,–,inactive: -15.4%
OCCN1CCN(C(=S)c2ccc(Cl)c(Cl)c2)CC1,"inconclusive [inhibitor, partial curve]",–
CN=C1SC(CC(=O)Nc2sc3c(c2C#N)CCCC3)C(=O)N1C (configuration not stated),"inconclusive [inhibitor, single point]",–
Cc1[nH]n(C(N)=S)c(=O)c1N=Nc1ccc(S(=O)(=O)N2CCCCCC2)cc1,–,inactive: 6.75%
CC(C)(C)c1ccc(-c2nnc3sc(-c4ccccn4)nn23)cc1,"inconclusive [inhibitor, single point]",–
COc1cc2[nH]c(=O)n(Cc3ccccc3Cl)c(=O)c2cc1OC,"inconclusive [inhibitor, partial curve]",–
O=C(/C=C/c1c(F)cccc1Cl)NCc1ccco1,–,inactive: 1.75%
COCCOC(=O)c1sc(=S)n(CCOC)c1N,"inconclusive [inhibitor, partial curve]",–
Cc1ccc(NC(=O)Cn2c(=O)oc3cc(S(=O)(=O)N4CCC(C)CC4)ccc32)cc1Cl,"inconclusive [inhibitor, partial curve]",–
O=C(NCC1OCCc2ccccc21)c1ccc(NC(=O)c2cccc(Br)c2)cc1 (configuration not stated),"inconclusive [inhibitor, partial curve]",–
